# Measured values reported in PubChem BioAssay AID1454 (National Center for Advancing Translational Sciences (NCATS), 2008).
# The whole screen tested about 130,000 compounds, of which about 550 (0.42%) were called active. Inconclusive results, whose numbers are uncertain, are shown with a selection of clear calls. The call rests on the fitted dose curve; in most records, active means well fitted inhibition curve with a large enough effect; inconclusive means small, poorly fitted or top-dose-only effect, or effect the other way; inactive means flat fitted curve, though single readings scatter. Potencies of inconclusive entries are left out as doubtful fits.
# Experiment: qHTS Assay for Inhibitors of the ERK Signaling Pathway using a Homogeneous Screening Assay; Stimulation with EGF; further: nearly all actives have a fitted effect of over 55% in size;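 on activity change, negative = inhibition: plate controls were stimulated vehicle wells for no effect and unstimulated vehicle basal for full effect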
# Settings: HEK293-V1b, EGF-stimulated phospho-ERK AlphaScreen; activity change, negative = inhibition: at the top concentration
# Procedure, shortened: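 Compounds are titrated over HEK293-V1b cells kept overnight in 1% FBS. After 30 min at 37C, EGF (25 nM final) triggers ERK phosphorylation for 5 min, measured by AlphaScreen in lysates.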
# Potency means the concentration at half of the fitted maximal effect; tags describe the fitted curve by direction and shape.
Compound,"activity change, negative = inhibition",Potency
CC[C@H]1C2=C3C(CC[C@H]4C(OC)OC[C@](C)([C@@H]34)N(C(=O)OC(C)(C)C)C2)C(CO)C1CO (stereo partly drawn),inactive: 5.01%,–
Cn1c(=O)c(-c2cc(F)cc(F)c2)nc2cnc(Oc3cccc(Cl)c3)nc21,inactive: -0.571%,–
Cc1csc2c(N(C)CCO)ncnc12,–,"inconclusive [activator, partial curve, poor fit]"
C[C@@]12C(=O)OC(=O)[C@@]1(C)C1CCC2O1,–,"inconclusive [inhibitor, single point]"
COc1ccc(-c2nnc(SCC(=O)O)n2C)cc1OC,inactive: -16.9%,–
Cc1ccc(-c2csc(NC(=O)CCNC(=O)c3ccccc3Cl)n2)cc1,–,"inconclusive [inhibitor, single point]"
CC(C)C(OC(=O)c1cccc(S(=O)(=O)NCC(F)(F)F)c1)C(=O)NC(N)=O (stereo not drawn),–,"inconclusive [activator, full curve]"
c1ccc(C2=Nn3c(nnc3-c3cccs3)SC2)cc1,inactive: -9.21% [at 57.5 µM],–
Cc1ccc(NC(=O)c2ccc(NCCCN3CCOCC3)c([N+](=O)[O-])c2)cc1Cl,inactive: -2.25%,–
COc1ccc(C(=O)NCCc2cc3c(OC)ccc(OC)c3[nH]c2=O)cc1OC,–,"inconclusive [activator, partial curve, poor fit]"
COc1ccc(N2CC(C(=O)Nc3nc4ccccc4s3)CC2=O)cc1 (stereo not drawn),–,"inconclusive [inhibitor, single point]"
Cc1onc(-c2ccc(Cl)cc2)c1-c1ccnn1S(=O)(=O)c1ccc(Cl)cc1,–,"inconclusive [inhibitor, single point]"
CC1CCCCC1NC(=O)/C(C#N)=C/C=C/c1ccccc1[N+](=O)[O-] (stereo not drawn),–,"inconclusive [inhibitor, partial curve]"
O=[N+]([O-])c1cccc(-c2ncc3ccccn23)c1,inactive: -21.7%,–
COC(=O)c1c(OC)cc2c(c1C)Oc1c(Cl)c(OC(C)=O)c(Cl)c(C)c1C(=O)O2,inactive: 4.29%,–
Cc1cc(C(=O)CSc2nn3c(=O)c(C(C)(C)C)nnc3s2)c(C)n1C1CC1,–,"inconclusive [inhibitor, single point]"
NS(=O)(=O)c1cc(C(=O)OCC(=O)Nc2ccc(Cl)cc2[N+](=O)[O-])ccc1Cl,–,"inconclusive [inhibitor, single point]"
CS(=O)(=O)CCNCc1nc(-c2ccc3ncnc(Nc4ccc(OCc5cccc(F)c5)c(Cl)c4)c3c2)cs1,–,active: 1 µM
O=C(Oc1ccccc1)N1CCC[C@@]2(CCN(c3ccccc3)C2)C1,–,"inconclusive [inhibitor, single point]"
O=C(CCl)NCCNC(=O)c1cc(OCC(F)(F)F)ccc1OCC(F)(F)F,–,"inconclusive [inhibitor, single point]"
COC(=O)c1c(NC(=O)c2ccccc2N(C)S(=O)(=O)c2ccccc2)sc2c1CCCC2,–,"inconclusive [activator, partial curve]"
COc1ccc(Cc2nnc(SCc3ccc([N+](=O)[O-])cc3)o2)cc1,inactive: -8.79%,–

Compound,"activity change, negative = inhibition",Potency
COc1ccc2c(c1)-c1c(ssc1=S)C(C)(C)N2,–,"inconclusive [inhibitor, single point]"
CCN1C(=O)/C(=C\c2ccncc2)SC1=Nc1ccc(C)c(C)c1,–,"inconclusive [inhibitor, partial curve]"
CC(=O)Nc1ccc(S(=O)(=O)Nc2nnc(CC(C)(C)C)s2)cc1,–,"inconclusive [inhibitor, partial curve]"
COc1cc(-c2[nH]ncc2CN2CCc3sccc3C2)cc(OC)c1OC,–,"inconclusive [inhibitor, partial curve]"
CCOc1ccc(CN2CCN(Cc3cc4c(cc3Cl)OCO4)CC2CCO)cc1 (stereo not drawn),–,"inconclusive [inhibitor, single point]"
O=[N+]([O-])c1c(Nc2ccccn2)cc(Cl)c2nonc12,–,active: 14.1 µM
COC(=O)c1ccc(C(=O)O)nc1,–,"inconclusive [activator, single point]"
COc1ccc(-c2nn(-c3ccccc3F)cc2CNCCn2nc(C)cc2C)cc1,–,"inconclusive [inhibitor, single point]"
Cc1cccc(NC(=S)NCCSc2ccc(Cl)cc2)c1,–,"inconclusive [inhibitor, single point]"
COCCn1c(=O)c(-c2ccc(OC)cc2)nc2cnc(OC)nc21,inactive: 6.54%,–
COC1=C(Nc2ccccc2)C(=O)c2ccccc2C1=O,–,active: 14.1 µM
COc1ccc(CCNC(=O)c2ccc3c(c2)SC2=NS(=O)(=O)CCN23)cc1,inactive: 14.1% [at 57.5 µM],–
CCOC(=O)c1ccc2ncc(C(=O)OCC)c(Nc3ccc(N4CCOCC4)cc3)c2c1,–,"inconclusive [inhibitor, single point]"
CC(=O)OC[C@H]1O[C@@H](O/N=C/C[C@@H]2C=C[C@H](OC(C)=O)[C@@H](COC(C)=O)O2)[C@H](OC(C)=O)[C@@H](OC(C)=O)[C@@H]1OC(C)=O,–,"inconclusive [inhibitor, partial curve]"
Cc1ccc(O)c(C(=O)c2cnc3c(c2)COc2ccc(C)cc2-3)c1,–,"inconclusive [inhibitor, single point]"
O=C(c1ccc(Cl)cc1)C1CCCN(Cc2ccc(Oc3ncccn3)cc2)C1 (stereo not drawn),–,"inconclusive [inhibitor, single point]"
CN(C)/N=C/c1ccc(Sc2ccccc2[N+](=O)[O-])o1,–,"inconclusive [inhibitor, single point]"
COc1ccccc1-n1c(-c2ccccc2)c[n+]2c1CCc1ccccc1-2,–,inactive
CC(C)(C)c1ccc(OCc2ccc(C(=O)NCc3cccnc3)o2)cc1,–,"inconclusive [inhibitor, single point]"
Cc1cc([N+](=O)[O-])nn1CCCC(=O)N1CCN(c2ccc(F)cc2)CC1,inactive: 4.41%,–
CC1CCN(CCCCOc2ccccc2-c2ccccc2)CC1,–,"inconclusive [inhibitor, single point]"
